Among all 360,000 compounds or so, about 25,000 (6.9%) were called active. Inconclusive results, whose numbers are uncertain, are shown with a selection of clear calls. Calls follow the shape of the dose curve; as a rule, active = well fitted inhibition curve with a large enough effect; inconclusive = small, poorly fitted or top-dose-only effect; inactive = flat fitted curve, though single readings scatter. A potency beside an inconclusive call is a rough fit, not a confirmed value.
What follows are compounds tested against Luciferin 4-monooxygenase (Photinus pyralis) (UniProt P08659) (assay: qHTS profiling assay for firefly luciferase inhibitor/activator using purifed enzyme and Km concentrations of substrates (counterscreen for miR-21 project)). Conditions: purified FLuc, luminescence inhibition; series mostly up to 57.5 µM; activity change, negative = inhibition: at the top concentration.
Sequence of UniProt P08659 (P08659 whole entry, looked up): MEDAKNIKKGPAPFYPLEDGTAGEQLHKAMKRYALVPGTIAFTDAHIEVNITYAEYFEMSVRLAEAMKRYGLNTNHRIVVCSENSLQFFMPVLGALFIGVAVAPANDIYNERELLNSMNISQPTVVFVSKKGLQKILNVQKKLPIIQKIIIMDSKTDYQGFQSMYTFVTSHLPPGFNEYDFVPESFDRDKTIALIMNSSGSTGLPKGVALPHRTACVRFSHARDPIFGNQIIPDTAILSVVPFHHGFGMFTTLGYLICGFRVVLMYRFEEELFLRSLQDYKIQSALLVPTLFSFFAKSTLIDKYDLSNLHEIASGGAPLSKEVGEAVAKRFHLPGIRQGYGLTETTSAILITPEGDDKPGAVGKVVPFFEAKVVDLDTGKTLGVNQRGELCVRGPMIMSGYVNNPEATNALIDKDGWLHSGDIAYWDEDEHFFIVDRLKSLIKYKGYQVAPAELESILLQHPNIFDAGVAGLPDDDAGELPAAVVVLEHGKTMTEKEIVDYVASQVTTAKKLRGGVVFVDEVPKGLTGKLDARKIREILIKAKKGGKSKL
Method in brief: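 Purified P. pyralis luciferase (10nM final) with 10uM D-luciferin and 10uM ATP (Km levels) in 50mM Tris acetate pH 7.5, 10mM Mg acetate, 0.01% Tween-20, 0.05% BSA; qHTS 6-point titration, ~60 µM downward; luminescence read.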
In the case of `O=C(NC(Cc1c[nH]c2ccccc12)C(=O)O)c1ccc2c(c1)OCO2` (configuration not stated), the Potency was inconclusive: 26.9 µM [inhibitor, single point]. In the case of `Cc1c(C(=O)N2CCCCC2)sc(NC(=O)c2ccco2)c1C#N`, the Potency was inconclusive: 21.3 µM [inhibitor, single point]. For `NC(=O)c1cc2ccccc2o/c1=N\NC(=O)c1ccc(F)cc1`, the “activity change, negative = inhibition” value was inactive: -0.0716%. With `CN(C)c1ccnc2sc3c(SCc4ccc(Cl)cc4)ncnc3c12` the Potency was inconclusive: 6.75 µM [inhibitor, partial curve, poor fit]. `Cc1ccc(-c2cc(C(=O)N/N=C/c3ccc(F)cc3)n[nH]2)o1` was tested, and the Potency was inconclusive: 37.9 µM [inhibitor, single point]. `N#Cc1ccc(/C=C(\C(=O)C(=O)O)c2ccc3ccccc3n2)cc1` was tested, and the Potency was inconclusive: 21.3 µM [inhibitor, single point]. With `O=C(COc1ccc(-c2ccccc2)cc1)N/N=C/c1cccnc1` the Potency was inconclusive: 7.57 µM [inhibitor, full curve]. In the case of `CCN1C(=O)/C(=C/C=C2/CCCN2C)OC1=S`, the Potency was inconclusive: 21.3 µM [inhibitor, single point]. `O=C(NCc1cccc(Cl)c1)c1cc(=O)[nH]c2ccccc12` was tested, and the “activity change, negative = inhibition” value was inactive: -1.54%. With `COc1ccc(Nc2c3c(nc4ccc(NC(=O)c5cc(Cl)ccc5OC)cc24)CCCC3)cc1OC` the “activity change, negative = inhibition” value was inactive: 8.73%. `CCN1/C(=N\N)c2cccc3cccc1c23` was tested, and the Potency was inconclusive: 23.9 µM [inhibitor, partial curve, poor fit]. In the case of `COc1c(C(=O)Nc2nnc(C3CC3)s2)csc1Cl`, the Potency was inconclusive: 5.36 µM [inhibitor, single point]. `COc1ccc(N2CCN(c3oc(/C=C/c4ccccc4OC)nc3C#N)CC2)cc1` was tested, and the “activity change, negative = inhibition” value was inactive: -9.8%. In the case of `CCCNC(=O)COC(=O)c1[nH]c(C)c(C(=O)OCC)c1C`, the Potency was inconclusive: 37.9 µM [inhibitor, partial curve, poor fit]. For `Nc1nc(COc2ccc(Cl)cc2)cs1`, the Potency was inconclusive: 23.9 µM [inhibitor, single point]. With `CN(CC(=O)Nc1ccccc1C(F)(F)F)C(=O)C1CC1` the “activity change, negative = inhibition” value was inactive: 1.17%. `O=C(Nc1ccc2c(c1)OCCO2)c1cc2sccc2n1Cc1ccc(F)cc1` was tested, and the Potency was inconclusive: 16.9 µM [inhibitor, partial curve]. In the case of `CC(=O)N1N=C(c2ccco2)CC1c1cc2ccc(C)cc2nc1Cl` (configuration not stated), the “activity change, negative = inhibition” value was inactive: -1.61%. In the case of `O=C(Nc1nc2ccccc2s1)c1ccc(Cl)s1`, the Potency was active: 1.9 µM. With `CCc1ccc(NC(=O)CSc2nc3ccccc3nc2N2CCCC2)cc1` the Potency was inconclusive: 30.1 µM [inhibitor, single point]. `COc1ccc2nc(NC(=O)C3COc4ccccc4O3)sc2c1` (configuration not stated) was tested, and the Potency was active: 3.01 µM. For `O=C(CSc1n[nH]c(-c2ccccc2)n1)Nc1ccc(N2CCOCC2)cc1`, the Potency was inconclusive: 19 µM [inhibitor, partial curve]. In the case of `CC12CN3CC(c4ccccc4)(CN(C1)C3c1ccc(Cl)cc1)C2=O` (configuration not stated), the “activity change, negative = inhibition” value was inactive: 4.19%. `Cc1ccc(C(=O)NCC(=O)OCC(=O)Nc2cc(S(=O)(=O)N3CCOCC3)ccc2C)cc1` was tested, and the Potency was inconclusive: 26.9 µM [inhibitor, single point]. In the case of `CCOc1ccc(NC(=O)c2c(NCc3cccs3)sc3c2CCCCC3)cc1`, the Potency was inconclusive: 30.1 µM [inhibitor, partial curve, poor fit]. For `Cc1cc(C)c2c(=O)n(CC(=O)Nc3cccc(Cl)c3C)sc2n1`, the Potency was inconclusive: 8.49 µM [inhibitor, partial curve]. In the case of `O=C(CSc1ncn(-c2ccccc2)n1)c1cccs1`, the Potency was active: 7.57 µM. In the case of `Cc1ccc(C2NS(=O)(=O)N=C2N)cc1` (configuration not stated), the “activity change, negative = inhibition” value was inactive: -0.65%. In the case of `Cc1cc(C)nc(Nc2nc3ccccc3[nH]2)n1`, the Potency was inconclusive: 6.01 µM [inhibitor, partial curve, poor fit]. In the case of `O=C(c1cccc(S(=O)(=O)N2CCc3ccccc3C2)c1)N1CCN(c2ccc(O)cc2)CC1`, the “activity change, negative = inhibition” value was inactive: -11.3%. For `O=C(Nc1ccc(F)cc1)c1cc(Cl)sc1Cl`, the Potency was inconclusive: 30.1 µM [inhibitor, partial curve, poor fit]. With `Cn1ccnc1SCC(=O)Nc1cccc2ccccc12` the Potency was inconclusive: 12 µM [inhibitor, partial curve, poor fit]. `O=C(CC1C(=O)NCCN1Cc1cccc(Oc2ccccc2)c1)NCCc1ccncc1` (configuration not stated) was tested, and the “activity change, negative = inhibition” value was inactive: -1.09%. With `CC(C)(C)c1ccc(C(=O)NNC(=S)NC(=O)c2cccnc2)cc1` the Potency was active: 19 µM. For `Cc1ccc(CSc2nnc(C)c(=O)[nH]2)cc1`, the Potency was active: 16.9 µM. With `O=C(Nc1ccc2nc(SCC(=O)N3CCOCC3)sc2c1)c1cccc(F)c1` the Potency was inconclusive: 37.9 µM [inhibitor, partial curve, poor fit]. In the case of `O=C(/C=C\Nc1ccc(Br)cc1)c1cccnc1`, the Potency was active: 0.953 µM. With `O=C(CSc1nc2ccccc2c(=O)[nH]1)Nc1ccc(C(=O)O)cc1` the Potency was inconclusive: 23.9 µM [inhibitor, single point]. For `COc1cc(Cl)ccc1OCc1cc(C(=O)N2C[C@H]3CC[C@H]2C3)no1`, the Potency was active: 8.49 µM. In the case of `Cn1cc(Cl)c(C(=O)Nc2cnn(Cc3ccc(F)cc3)c2)n1`, the Potency was inconclusive: 26.9 µM [inhibitor, partial curve, poor fit]. With `O=C(NCc1cccnc1)c1c[nH]c2cc3c(cc2c1=O)OCCO3` the Potency was active: 6.01 µM. For `COc1ccc(Cn2c(CCC(=O)Nc3ccc(OC)c(Cl)c3)nc3cccnc32)cc1`, the “activity change, negative = inhibition” value was inactive: -0.0613%. `COc1ccccc1CCC(=O)Oc1ccc(C#N)cc1OC` was tested, and the Potency was active: 21.3 µM. `Cc1ccccc1C(=O)Nc1cccc(C(=O)N/N=C/c2cc(Cl)cc([N+](=O)[O-])c2O)c1` was tested, and the Potency was active: 21.3 µM. For `CSc1ncccc1C(=O)NCc1ccccc1Cl`, the “activity change, negative = inhibition” value was inactive: 4.91%. `Clc1ccc(N2CCN(/N=C/c3ccncc3)CC2)cc1` was tested, and the “activity change, negative = inhibition” value was inactive: -0.331%. `CCOc1ccccc1NC(=O)Nc1ccsc1C(=O)OC` was tested, and the Potency was inconclusive: 37.9 µM [inhibitor, single point]. For `CC(/C=N/NC(=O)c1cc(-c2ccc(C)o2)[nH]n1)=C\c1ccccc1`, the Potency was inconclusive: 3.38 µM [inhibitor, partial curve, poor fit]. In the case of `CCC(=O)Nc1ccc2oc(-c3ccccc3Br)nc2c1`, the Potency was active: 3.01 µM. In the case of `Cc1c(C(=O)Nc2cccc(C#N)c2)sc2nc3n(c(=O)c12)CCCCC3`, the Potency was inconclusive: 15.1 µM [inhibitor, partial curve]. `O=C(NCC1CCCO1)Nc1ccc(Cl)cc1` (configuration not stated) was tested, and the Potency was inconclusive: 21.3 µM [inhibitor, single point]. With `Cc1cc2cc(CNC(=O)NC3CCCCC3)ccc2[nH]1` the Potency was inconclusive: 15.1 µM [inhibitor, partial curve]. With `COC(=O)c1sc2cccc(F)c2c1S(=O)(=O)Nc1cc(C)c(Cl)cc1OC` the Potency was inconclusive: 30.1 µM [inhibitor, partial curve, poor fit]. With `O=C(Nc1ccc(Cl)c([N+](=O)[O-])c1)Nc1nc2ccccc2s1` the Potency was inconclusive: 26.9 µM [inhibitor, partial curve, poor fit]. For `O=C(O)c1c(C(=O)N2N=C3/C(=C/c4ccccc4)CCCC3C2c2ccccc2)cccc1[N+](=O)[O-]` (configuration not stated), the Potency was inconclusive: 37.9 µM [inhibitor, partial curve, poor fit]. `O=C(Nc1ccc2c(c1)CCC2)c1cc(S(=O)(=O)N2CCN(c3ccccc3)CC2)ccc1Cl` was tested, and the “activity change, negative = inhibition” value was inactive: 0.29%. With `COc1cccc(C=O)c1OC(=O)N1CCOCC1` the “activity change, negative = inhibition” value was inactive: -3.71%. With `O=C(COc1ccc(Cl)cc1)Nc1ccc(-c2nc3cc(Cl)ccc3o2)c(O)c1` the Potency was inconclusive: 9.53 µM [inhibitor, partial curve]. With `CCOCCCn1cnc2c([nH]c3cc(OC)ccc32)c1=O` the Potency was inconclusive: 26.9 µM [inhibitor, partial curve, poor fit]. With `COc1c(Cl)cc(Cl)cc1C(=O)Nc1ccc(NC(C)=O)cc1` the Potency was inconclusive: 26.9 µM [inhibitor, partial curve, poor fit]. For `CN(C)c1ccc(/C=C/C#N)cc1`, the Potency was inconclusive: 21.3 µM [inhibitor, partial curve, poor fit]. `O=S1(=O)N=C(Nc2ccc(N3CCOCC3)cc2)c2ccccc21` was tested, and the Potency was active: 13.5 µM. With `CCOC(=O)Cc1c(C)nc2c(-c3ccccc3)c(C)nn2c1C` the Potency was active: 21.3 µM. `CN(CC(=O)Nc1ccc(N2CCOCC2)cc1)C(=O)CCc1cc(C(C)(C)C)c(O)c(C(C)(C)C)c1` was tested, and the Potency was inconclusive: 26.9 µM [inhibitor, single point]. With `CCOc1ccc(-c2nnc(SCC(=O)NC3CC3)o2)cc1` the Potency was inconclusive: 33.8 µM [inhibitor, single point]. `CN(C)/N=C/C=C1\CC/C(=C\c2ccc(Br)cc2)C1=O` was tested, and the Potency was inconclusive: 2.13 µM [inhibitor, full curve]. For `Cc1cc(C)c2c(n1)sc1c(N3CCN(C)CC3)ncnc12`, the Potency was inconclusive: 19 µM [inhibitor, partial curve]. `COc1cc2ccc(=O)oc2c(O)c1OCC=C(C)C` was tested, and the Potency was inconclusive: 26.9 µM [inhibitor, partial curve, poor fit]. With `CCOc1ccc2nc(SCC(=O)c3cccs3)sc2c1` the Potency was active: 2.69 µM. `O=C(Nc1ccc(F)c(Cl)c1)Nc1csc2ccccc12` was tested, and the Potency was inconclusive: 26.9 µM [inhibitor, single point]. In the case of `COC(=O)c1ccc(NC(=O)NC(C)c2c(-n3cccc3)sc(C)c2C)cc1` (configuration not stated), the “activity change, negative = inhibition” value was inactive: -2.09%. `N#CC1=C(N)Oc2c(ccc3ccccc23)C1c1cccs1` (configuration not stated) was tested, and the Potency was inconclusive: 19 µM [inhibitor, partial curve, poor fit].

Source: PubChem BioAssay AID588342 (National Center for Advancing Translational Sciences (NCATS), 2011)
Also: nearly all actives have a fitted effect of over 55% in size.
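For activity change, negative = inhibition in this document: plate controls were vehicle for no effect and reference inhibitor for full effect.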
Potency is read from the fitted curve at half-maximal effect; tags tell the direction and shape of the fitted curve.
